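Compound exposure: 48 hours, 5 concentrations, 96-well plates. GI50 = concentration required for 50% inhibition of growth. TGI is the concentration that stops growth completely.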
System: NCI-H322M lung
Assay: NCI anticancer screen, dose series, 48 h

Row | Compound | GI50 [µM] | TGI [µM]
1 | COc1ccccc1Nc1nnc(-c2c[nH]c3ccccc23)o1 | 4.71 | > 100
2 | Cn1cc(-c2cc(N)n3nc(-c4c[nH]c5ccc(F)cc45)cc3n2)c2cc(Br)cnc21 | > 100 | > 100
3 | COc1ccc(C(=O)Nc2ccc(-c3ccc4c(c3)NC(=O)/C4=C\c3ccc[nH]3)cc2)cc1 | > 100 | > 100
4 | O=C(Nc1cccc(-n2cnc3cc(-c4ccc(O)cc4)ccc32)c1)C1CC1 | 0.694 | 38
5 | C#CCCCN(CCNc1ccnc2cc(Cl)ccc12)C(=O)CCC(=O)O[C@@H]1O[C@@H]2OC3(C)CC[C@H]4[C@H](C)CC[C@@H]([C@H]1C)[C@@]24OO3 | > 11.5 | > 11.5
6 | COc1ccc2c(c1)c(-c1cc3nc(-c4cn(C)c5ncc(Br)cc45)cc(N)n3n1)cn2C | 1.59 | 5.52
7 | C=C1CCC2C3(C)COC(c4ccccc4F)OC3CCC2(C)C1C/C=C1/C(=O)OCC1O (centres undefined) | 9.98 | 22.1
